Test results: paper PMC12048663
Where two headings read alike, the source gives them in different places. Results are given in words; binding and its absence hold for the method and conditions named. For some of these results: Binding seen in cells or lysates may run through a third protein. Some results given as binding are weak or reduced against the parent protein; the word gives no strength. For some of these results: Sequences can lack the tags named with a protein. Values belong to the molecule of their own block, whether it stands above or below them.

Protein sequences, listed by entry. Tags and fused reporters are not part of them. Lines headed by an entry give the natural chain unless they say otherwise; changes in a name come on top. Chains listed by the source or under a name are the forms on record and can include a tag or linker.
UniProt Q2TAZ0: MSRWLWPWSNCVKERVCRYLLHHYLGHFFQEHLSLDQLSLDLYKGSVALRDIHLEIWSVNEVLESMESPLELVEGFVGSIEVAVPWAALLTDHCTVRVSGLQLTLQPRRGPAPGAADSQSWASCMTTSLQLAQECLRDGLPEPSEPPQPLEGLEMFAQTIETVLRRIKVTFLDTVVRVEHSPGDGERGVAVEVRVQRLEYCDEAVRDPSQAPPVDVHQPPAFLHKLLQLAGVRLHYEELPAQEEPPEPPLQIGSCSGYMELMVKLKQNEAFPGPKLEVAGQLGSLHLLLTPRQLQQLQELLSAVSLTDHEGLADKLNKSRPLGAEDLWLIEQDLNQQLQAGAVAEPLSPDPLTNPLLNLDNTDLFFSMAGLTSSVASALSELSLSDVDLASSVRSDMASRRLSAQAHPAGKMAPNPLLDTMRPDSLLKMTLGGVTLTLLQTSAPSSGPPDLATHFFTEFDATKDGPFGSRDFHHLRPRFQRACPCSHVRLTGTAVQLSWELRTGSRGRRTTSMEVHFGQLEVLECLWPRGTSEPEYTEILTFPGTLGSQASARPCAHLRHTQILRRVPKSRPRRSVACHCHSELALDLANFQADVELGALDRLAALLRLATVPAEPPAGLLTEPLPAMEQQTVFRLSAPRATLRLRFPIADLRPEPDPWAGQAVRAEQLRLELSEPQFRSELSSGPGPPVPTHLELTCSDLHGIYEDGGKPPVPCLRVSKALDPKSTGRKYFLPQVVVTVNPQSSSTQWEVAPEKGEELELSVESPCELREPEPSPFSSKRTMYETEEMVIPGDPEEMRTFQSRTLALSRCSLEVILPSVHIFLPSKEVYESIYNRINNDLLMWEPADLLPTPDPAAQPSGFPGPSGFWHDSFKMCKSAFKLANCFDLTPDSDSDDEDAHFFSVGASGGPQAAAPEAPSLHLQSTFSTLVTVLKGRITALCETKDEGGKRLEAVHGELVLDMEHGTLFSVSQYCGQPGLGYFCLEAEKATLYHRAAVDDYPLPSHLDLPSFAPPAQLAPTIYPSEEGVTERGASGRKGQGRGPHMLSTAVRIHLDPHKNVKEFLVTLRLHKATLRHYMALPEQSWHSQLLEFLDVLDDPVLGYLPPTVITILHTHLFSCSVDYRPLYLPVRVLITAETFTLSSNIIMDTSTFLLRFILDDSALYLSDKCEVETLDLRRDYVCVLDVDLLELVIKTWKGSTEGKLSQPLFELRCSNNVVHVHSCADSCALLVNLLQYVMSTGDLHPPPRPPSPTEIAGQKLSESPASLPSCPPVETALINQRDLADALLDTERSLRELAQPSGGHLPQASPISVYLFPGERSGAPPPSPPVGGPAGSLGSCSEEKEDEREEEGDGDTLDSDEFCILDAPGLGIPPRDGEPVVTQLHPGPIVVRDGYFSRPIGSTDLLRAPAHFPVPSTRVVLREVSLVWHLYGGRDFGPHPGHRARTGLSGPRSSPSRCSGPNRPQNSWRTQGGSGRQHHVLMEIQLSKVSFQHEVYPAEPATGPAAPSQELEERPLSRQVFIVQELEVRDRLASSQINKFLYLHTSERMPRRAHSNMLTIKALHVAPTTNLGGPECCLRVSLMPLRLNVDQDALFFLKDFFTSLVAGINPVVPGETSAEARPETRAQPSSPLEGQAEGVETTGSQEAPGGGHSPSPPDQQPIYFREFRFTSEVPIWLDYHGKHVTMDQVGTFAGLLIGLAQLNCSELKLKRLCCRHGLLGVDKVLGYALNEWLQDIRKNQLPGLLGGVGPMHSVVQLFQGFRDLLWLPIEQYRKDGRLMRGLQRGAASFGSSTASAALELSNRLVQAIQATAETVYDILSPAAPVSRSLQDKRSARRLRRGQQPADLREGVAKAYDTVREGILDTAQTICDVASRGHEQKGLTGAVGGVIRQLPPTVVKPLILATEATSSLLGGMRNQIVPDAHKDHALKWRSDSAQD
HA-ATG2A-3CS (Q2TAZ0, form named): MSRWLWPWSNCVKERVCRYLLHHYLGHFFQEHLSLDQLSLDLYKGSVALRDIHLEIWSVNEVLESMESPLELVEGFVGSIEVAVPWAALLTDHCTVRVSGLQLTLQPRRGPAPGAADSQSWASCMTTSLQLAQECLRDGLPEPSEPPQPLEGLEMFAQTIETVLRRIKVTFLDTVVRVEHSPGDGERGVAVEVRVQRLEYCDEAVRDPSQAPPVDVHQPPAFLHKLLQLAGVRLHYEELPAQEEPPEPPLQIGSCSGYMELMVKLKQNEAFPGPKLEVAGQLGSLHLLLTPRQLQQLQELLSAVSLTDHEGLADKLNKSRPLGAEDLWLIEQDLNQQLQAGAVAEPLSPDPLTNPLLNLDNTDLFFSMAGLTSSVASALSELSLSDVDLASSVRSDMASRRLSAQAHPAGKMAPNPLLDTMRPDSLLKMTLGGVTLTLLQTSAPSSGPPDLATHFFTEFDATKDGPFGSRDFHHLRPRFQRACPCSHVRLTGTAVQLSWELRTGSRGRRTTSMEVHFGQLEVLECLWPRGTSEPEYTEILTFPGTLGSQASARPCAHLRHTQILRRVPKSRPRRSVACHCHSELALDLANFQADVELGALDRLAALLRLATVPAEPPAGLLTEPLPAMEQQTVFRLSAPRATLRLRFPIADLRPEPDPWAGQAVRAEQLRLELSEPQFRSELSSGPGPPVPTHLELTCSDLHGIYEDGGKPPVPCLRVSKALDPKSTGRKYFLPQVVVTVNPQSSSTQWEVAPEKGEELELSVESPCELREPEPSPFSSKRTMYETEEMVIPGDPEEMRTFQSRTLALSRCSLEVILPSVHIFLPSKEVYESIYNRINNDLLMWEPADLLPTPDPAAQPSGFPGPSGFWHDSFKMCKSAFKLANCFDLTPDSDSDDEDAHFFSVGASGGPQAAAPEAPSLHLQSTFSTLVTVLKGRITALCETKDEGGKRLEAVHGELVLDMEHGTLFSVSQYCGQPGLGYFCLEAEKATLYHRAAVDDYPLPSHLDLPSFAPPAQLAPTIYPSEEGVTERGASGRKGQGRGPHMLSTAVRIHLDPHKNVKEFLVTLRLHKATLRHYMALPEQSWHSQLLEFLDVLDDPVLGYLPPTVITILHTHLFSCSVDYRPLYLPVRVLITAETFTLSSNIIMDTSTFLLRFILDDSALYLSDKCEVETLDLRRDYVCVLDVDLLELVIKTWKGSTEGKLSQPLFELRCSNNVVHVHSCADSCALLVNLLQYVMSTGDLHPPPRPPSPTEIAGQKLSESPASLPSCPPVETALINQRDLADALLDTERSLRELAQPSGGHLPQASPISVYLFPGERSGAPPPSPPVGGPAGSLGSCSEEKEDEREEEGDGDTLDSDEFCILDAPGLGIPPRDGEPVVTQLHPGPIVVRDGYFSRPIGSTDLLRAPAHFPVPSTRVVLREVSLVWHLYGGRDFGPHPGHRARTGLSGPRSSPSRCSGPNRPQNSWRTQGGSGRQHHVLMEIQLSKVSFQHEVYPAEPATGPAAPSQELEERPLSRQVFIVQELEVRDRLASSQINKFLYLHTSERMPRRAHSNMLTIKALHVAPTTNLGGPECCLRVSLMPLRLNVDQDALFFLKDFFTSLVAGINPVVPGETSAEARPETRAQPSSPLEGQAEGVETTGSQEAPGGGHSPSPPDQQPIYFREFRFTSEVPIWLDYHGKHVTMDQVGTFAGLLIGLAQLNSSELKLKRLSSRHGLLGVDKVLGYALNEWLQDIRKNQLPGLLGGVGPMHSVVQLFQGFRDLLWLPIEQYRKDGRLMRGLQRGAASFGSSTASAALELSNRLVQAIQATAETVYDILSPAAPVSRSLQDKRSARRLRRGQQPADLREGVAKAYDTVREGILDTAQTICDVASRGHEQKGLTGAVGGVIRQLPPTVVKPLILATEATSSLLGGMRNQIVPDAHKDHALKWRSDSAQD
UniProt O95372: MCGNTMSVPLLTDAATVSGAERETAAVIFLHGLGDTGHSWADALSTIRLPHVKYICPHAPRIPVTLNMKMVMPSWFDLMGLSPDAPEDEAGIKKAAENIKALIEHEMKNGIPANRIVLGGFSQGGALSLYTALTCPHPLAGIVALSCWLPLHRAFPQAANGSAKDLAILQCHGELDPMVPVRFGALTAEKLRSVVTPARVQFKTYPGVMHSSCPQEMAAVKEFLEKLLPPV
UniProt O75608: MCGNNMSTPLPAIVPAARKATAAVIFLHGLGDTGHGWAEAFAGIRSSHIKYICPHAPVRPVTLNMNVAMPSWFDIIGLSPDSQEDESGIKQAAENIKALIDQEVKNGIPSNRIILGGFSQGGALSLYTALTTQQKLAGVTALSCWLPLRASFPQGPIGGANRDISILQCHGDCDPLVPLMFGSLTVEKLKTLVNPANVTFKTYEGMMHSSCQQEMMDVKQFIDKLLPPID

What was measured:
HA-ATG2A (human) [1] = target: HA-ATG2A (human) (UniProt Q2TAZ0); assay: co-IP; tagged proteins expressed (transfected or stably expressing) in HEK293T cells, WT or APT1-KO, in complete media or treated with EBSS; NP-40 lysis buffer (50 mM HEPES, 150 mM NaCl, 10% glycerol, 1% NP-40, 1 mM EDTA, 1 mM EGTA, pH 7.4), 4 °C; Western blot for the partner's tag
Flag-ATG2A (human) [2] = target: Flag-ATG2A (human) (UniProt Q2TAZ0); assay: as above
HA-ZDHHC11 = target: T1, HA-ZDHHC11 (UniProt Q9H8X9); assay: pull-down; HA-ZDHHC11 held on anti-HA beads (from HEK293T lysate, washed three times with high-salt IP lysis buffer), incubated with purified Flag-ATG2A for 6 h at 4 °C; Western blot with anti-ATG2A; both purified
T1 sequence: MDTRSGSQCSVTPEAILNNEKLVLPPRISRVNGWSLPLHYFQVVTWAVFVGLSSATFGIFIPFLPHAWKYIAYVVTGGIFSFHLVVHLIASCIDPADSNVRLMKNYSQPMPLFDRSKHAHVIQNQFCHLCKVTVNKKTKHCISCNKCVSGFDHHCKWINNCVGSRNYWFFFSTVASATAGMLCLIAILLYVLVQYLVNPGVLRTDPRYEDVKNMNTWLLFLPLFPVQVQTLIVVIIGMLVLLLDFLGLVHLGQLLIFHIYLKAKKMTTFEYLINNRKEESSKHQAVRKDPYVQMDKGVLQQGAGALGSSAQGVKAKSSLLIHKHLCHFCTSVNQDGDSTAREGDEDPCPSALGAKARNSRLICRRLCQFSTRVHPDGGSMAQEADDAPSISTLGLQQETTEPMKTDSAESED

recombinant GST-APT2 = recombinant GST-APT2 (UniProt O95372); assay: pull-down; purified GST-APT1/2 incubated with purified Flag-ATG2A overnight at 4 °C, then GSH agarose beads for 4 h at 4 °C; Western blot with anti-ATG2A; both purified
recombinant GST-APT1 = recombinant GST-APT1 (UniProt O75608); assay: as above
Myc-ZDHHC11 = target: T2, Myc-ZDHHC11 (UniProt Q9H8X9); assay: co-IP; tagged proteins expressed (transfected or stably expressing) in HEK293T cells, WT or APT1-KO, in complete media or treated with EBSS; NP-40 lysis buffer (50 mM HEPES, 150 mM NaCl, 10% glycerol, 1% NP-40, 1 mM EDTA, 1 mM EGTA, pH 7.4), 4 °C; Western blot for the partner's tag
T2 sequence: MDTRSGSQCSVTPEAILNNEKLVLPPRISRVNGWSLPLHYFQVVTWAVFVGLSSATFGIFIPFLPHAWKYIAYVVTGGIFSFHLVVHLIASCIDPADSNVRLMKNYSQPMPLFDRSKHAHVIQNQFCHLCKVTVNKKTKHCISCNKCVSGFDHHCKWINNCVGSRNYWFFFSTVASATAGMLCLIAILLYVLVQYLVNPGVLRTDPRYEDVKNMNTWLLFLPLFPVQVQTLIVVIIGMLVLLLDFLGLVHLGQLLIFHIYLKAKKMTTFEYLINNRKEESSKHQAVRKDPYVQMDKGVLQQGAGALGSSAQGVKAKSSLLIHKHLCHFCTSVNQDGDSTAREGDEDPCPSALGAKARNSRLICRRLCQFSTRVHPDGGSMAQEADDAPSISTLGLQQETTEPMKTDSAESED

Myc-ZDHHC11 (∆1-42) = target: T3, Myc-ZDHHC11 (∆1-42) (UniProt Q9H8X9); assay: as above
T3 sequence: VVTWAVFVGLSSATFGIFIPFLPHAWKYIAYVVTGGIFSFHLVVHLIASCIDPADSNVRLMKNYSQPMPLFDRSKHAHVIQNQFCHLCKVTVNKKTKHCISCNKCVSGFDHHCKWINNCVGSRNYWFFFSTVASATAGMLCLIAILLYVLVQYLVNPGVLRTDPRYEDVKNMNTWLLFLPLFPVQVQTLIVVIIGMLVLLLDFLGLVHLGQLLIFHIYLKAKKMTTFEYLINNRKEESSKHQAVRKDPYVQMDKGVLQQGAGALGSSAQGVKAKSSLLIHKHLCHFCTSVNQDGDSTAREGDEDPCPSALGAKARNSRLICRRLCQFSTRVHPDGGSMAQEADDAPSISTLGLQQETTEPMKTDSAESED

HA-ATG2A-3CS (human) = HA-ATG2A-3CS (human) (UniProt Q2TAZ0); assay: as above
HA-ATG2A (human) [3] = target: HA-ATG2A (human) (UniProt Q2TAZ0); assay: as above; remark: listed apart in the source
Flag-ATG2A (human) [4] = target: Flag-ATG2A (human) (UniProt Q2TAZ0); assay: as above; remark: listed apart in the source
[5] = target: endogenous ATG2A (human (endogenous in HEK293T)) (UniProt Q2TAZ0); assay: co-IP; endogenous proteins in HEK293T cells

Molecule: Myc-APT1 (from UniProt O75608 1-230) (enzyme)
binding (HA-ATG2A (human) [1]): binds

Molecule: HA-APT2 (from UniProt O95372 1-231) (enzyme)
binding (Flag-ATG2A (human) [2]): binds

Molecule: Flag-ATG2A (from UniProt Q2TAZ0 1-1938)
binding (Myc-ZDHHC11): binds | binding (Myc-ZDHHC11 (∆1-42)): no binding

Molecule: HA-APT1 (from UniProt O75608 1-230) (enzyme)
binding (Flag-ATG2A (human) [2]): binds

B1: Myc-VMP1 (protein, UniProt Q96GC9 1-406)
chain: MAENGKNCDQRRVAMNKEHHNGNFTDPSSVNEKKRREREERQNIVLWRQPLITLQYFSLEILVILKEWTSKLWHRQSIVVSFLLLLAVLIATYYVEGVHQQYVQRIEKQFLLYAYWIGLGILSSVGLGTGLHTFLLYLGPHIASVTLAAYECNSVNFPEPPYPDQIICPDEEGTEGTISLWSIISKVRIEACMWGIGTAIGELPPYFMARAARLSGAEPDDEEYQEFEEMLEHAESAQDFASRAKLAVQKLVQKVGFFGILACASIPNPLFDLAGITCGHFLVPFWTFFGATLIGKAIIKMHIQKIFVIITFSKHIVEQMVAFIGAVPGIGPSLQKPFQEYLEAQRQKLHHKSEMGTPQGENWLSWMFEKLVVVMVCYFILSIINSMAQSYAKRIQQRLNSEEKTK
binding (HA-ATG2A-3CS (human)): binds | binding (HA-ATG2A (human) [3]): binds

B2: GFP-WIPI4 (protein, UniProt Q9Y484 1-360)
chain: MTQQPLRGVTSLRFNQDQSCFCCAMETGVRIYNVEPLMEKGHLDHEQVGSMGLVEMLHRSNLLALVGGGSSPKFSEISVLIWDDAREGKDSKEKLVLEFTFTKPVLSVRMRHDKIVIVLKNRIYVYSFPDNPRKLFEFDTRDNPKGLCDLCPSLEKQLLVFPGHKCGSLQLVDLASTKPGTSSAPFTINAHQSDIACVSLNQPGTVVASASQKGTLIRLFDTQSKEKLVELRRGTDPATLYCINFSHDSSFLCASSDKGTVHIFALKDTRLNRRSALARVGKVGPMIGQYVDSQWSLASFTVPAESACICAFGRNTSKNVNSVIAICVDGTFHKYVFTPDGNCNREAFDVYLDICDDDDF
binding (HA-ATG2A-3CS (human)): binds | binding (HA-ATG2A (human) [3]): binds

B3: HA-ZDHHC6 (enzyme, UniProt Q9H6R6 1-413)
chain: MGTFCSVIKFENLQELKRLCHWGPIIALGVIAICSTMAMIDSVLWYWPLHTTGGSVNFIMLINWTVMILYNYFNAMFVGPGFVPLGWKPEISQDTMYLQYCKVCQAYKAPRSHHCRKCNRCVMKMDHHCPWINNCCGYQNHASFTLFLLLAPLGCIHAAFIFVMTMYTQLYHRLSFGWNTVKIDMSAARRDPLPIVPFGLAAFATTLFALGLALGTTIAVGMLFFIQMKIILRNKTSIESWIEEKAKDRIQYYQLDEVFVFPYDMGSRWRNFKQVFTWSGVPEGDGLEWPVREGCHQYSLTIEQLKQKADKRVRSVRYKVIEDYSGACCPLNKGIKTFFTSPCTEEPRIQLQKGEFILATRGLRYWLYGDKILDDSFIEGVSRIRGWFPRKCVEKCPCDAETDQAPEGEKKNR
binding (Flag-ATG2A (human) [4]): no binding

B4: HA-ZDHHC11 (enzyme, UniProt Q9H8X9 1-412)
chain: MDTRSGSQCSVTPEAILNNEKLVLPPRISRVNGWSLPLHYFQVVTWAVFVGLSSATFGIFIPFLPHAWKYIAYVVTGGIFSFHLVVHLIASCIDPADSNVRLMKNYSQPMPLFDRSKHAHVIQNQFCHLCKVTVNKKTKHCISCNKCVSGFDHHCKWINNCVGSRNYWFFFSTVASATAGMLCLIAILLYVLVQYLVNPGVLRTDPRYEDVKNMNTWLLFLPLFPVQVQTLIVVIIGMLVLLLDFLGLVHLGQLLIFHIYLKAKKMTTFEYLINNRKEESSKHQAVRKDPYVQMDKGVLQQGAGALGSSAQGVKAKSSLLIHKHLCHFCTSVNQDGDSTAREGDEDPCPSALGAKARNSRLICRRLCQFSTRVHPDGGSMAQEADDAPSISTLGLQQETTEPMKTDSAESED
binding (Flag-ATG2A (human) [4]): binds

Other lines, results leading:

binding (HA-ZDHHC11): binds | binding (recombinant GST-APT2): binds | binding (recombinant GST-APT1): binds
Molecule: purified Flag-ATG2A (from UniProt Q2TAZ0 1-1938)

binding (HA-ATG2A (human) [3]): binds
B5: Myc-ZDHHC11 (enzyme, UniProt Q9H8X9 1-412)
chain: MDTRSGSQCSVTPEAILNNEKLVLPPRISRVNGWSLPLHYFQVVTWAVFVGLSSATFGIFIPFLPHAWKYIAYVVTGGIFSFHLVVHLIASCIDPADSNVRLMKNYSQPMPLFDRSKHAHVIQNQFCHLCKVTVNKKTKHCISCNKCVSGFDHHCKWINNCVGSRNYWFFFSTVASATAGMLCLIAILLYVLVQYLVNPGVLRTDPRYEDVKNMNTWLLFLPLFPVQVQTLIVVIIGMLVLLLDFLGLVHLGQLLIFHIYLKAKKMTTFEYLINNRKEESSKHQAVRKDPYVQMDKGVLQQGAGALGSSAQGVKAKSSLLIHKHLCHFCTSVNQDGDSTAREGDEDPCPSALGAKARNSRLICRRLCQFSTRVHPDGGSMAQEADDAPSISTLGLQQETTEPMKTDSAESED

binding [5]: binds
B6: endogenous ZDHHC11 (enzyme, UniProt Q9H8X9 1-412)
chain: MDTRSGSQCSVTPEAILNNEKLVLPPRISRVNGWSLPLHYFQVVTWAVFVGLSSATFGIFIPFLPHAWKYIAYVVTGGIFSFHLVVHLIASCIDPADSNVRLMKNYSQPMPLFDRSKHAHVIQNQFCHLCKVTVNKKTKHCISCNKCVSGFDHHCKWINNCVGSRNYWFFFSTVASATAGMLCLIAILLYVLVQYLVNPGVLRTDPRYEDVKNMNTWLLFLPLFPVQVQTLIVVIIGMLVLLLDFLGLVHLGQLLIFHIYLKAKKMTTFEYLINNRKEESSKHQAVRKDPYVQMDKGVLQQGAGALGSSAQGVKAKSSLLIHKHLCHFCTSVNQDGDSTAREGDEDPCPSALGAKARNSRLICRRLCQFSTRVHPDGGSMAQEADDAPSISTLGLQQETTEPMKTDSAESED
